Test results taken from patent US20210238260A1 (published 2021).

T1: Factor VIIIa (recombinant FVIII, Kogenate FS, activated with alpha-thrombin) (UniProt P00451 20-2351)
T1 construct: also called FVIIIa; cofactor
T1 sequence (looked up): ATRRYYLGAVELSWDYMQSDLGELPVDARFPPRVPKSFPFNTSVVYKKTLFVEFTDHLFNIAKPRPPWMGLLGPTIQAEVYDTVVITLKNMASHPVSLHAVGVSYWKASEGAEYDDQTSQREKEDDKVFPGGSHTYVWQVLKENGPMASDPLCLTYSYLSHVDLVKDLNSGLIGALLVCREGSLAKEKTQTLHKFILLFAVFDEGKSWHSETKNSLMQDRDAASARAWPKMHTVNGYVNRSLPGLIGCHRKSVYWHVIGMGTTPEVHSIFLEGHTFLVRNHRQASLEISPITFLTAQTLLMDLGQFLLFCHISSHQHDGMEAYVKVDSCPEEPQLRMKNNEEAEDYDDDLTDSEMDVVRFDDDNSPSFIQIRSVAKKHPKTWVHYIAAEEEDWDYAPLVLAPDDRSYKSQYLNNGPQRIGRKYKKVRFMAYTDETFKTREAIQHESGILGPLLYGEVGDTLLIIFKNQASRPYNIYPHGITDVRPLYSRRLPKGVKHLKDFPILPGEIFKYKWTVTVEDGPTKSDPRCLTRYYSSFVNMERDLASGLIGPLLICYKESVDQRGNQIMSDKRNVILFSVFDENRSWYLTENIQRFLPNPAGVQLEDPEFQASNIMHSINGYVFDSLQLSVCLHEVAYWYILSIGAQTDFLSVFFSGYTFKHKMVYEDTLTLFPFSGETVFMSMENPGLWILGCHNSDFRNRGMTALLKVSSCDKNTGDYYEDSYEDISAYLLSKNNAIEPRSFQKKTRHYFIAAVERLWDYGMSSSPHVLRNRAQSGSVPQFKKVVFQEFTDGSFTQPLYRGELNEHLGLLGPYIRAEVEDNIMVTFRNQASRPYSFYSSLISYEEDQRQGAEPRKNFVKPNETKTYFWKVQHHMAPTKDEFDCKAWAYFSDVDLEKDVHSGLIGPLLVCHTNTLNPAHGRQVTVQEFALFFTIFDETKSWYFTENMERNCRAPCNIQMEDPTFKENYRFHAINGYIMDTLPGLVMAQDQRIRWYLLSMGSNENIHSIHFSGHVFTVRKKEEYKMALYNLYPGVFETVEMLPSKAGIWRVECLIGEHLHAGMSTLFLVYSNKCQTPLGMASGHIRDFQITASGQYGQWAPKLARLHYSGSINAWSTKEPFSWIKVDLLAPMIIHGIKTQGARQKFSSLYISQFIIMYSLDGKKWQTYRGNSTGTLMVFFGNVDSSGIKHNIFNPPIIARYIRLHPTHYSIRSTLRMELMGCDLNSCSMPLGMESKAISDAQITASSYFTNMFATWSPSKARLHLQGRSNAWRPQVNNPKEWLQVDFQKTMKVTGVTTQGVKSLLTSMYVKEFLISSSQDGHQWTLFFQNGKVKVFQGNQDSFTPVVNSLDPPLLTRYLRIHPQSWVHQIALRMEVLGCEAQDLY


Assays:
[1] = target: T1, Factor VIIIa (recombinant FVIII, …); test: apparent functional KD (KD-app): FXa generation by FIXa with FVIIIa titrated, PC/PS vesicles, saturating FX, fluorogenic Spectrafluor FXa
[2] = target: T1, Factor VIIIa (recombinant FVIII, …); test: same assay; ratio of KD-app of Catalyst Biosciences WT FIXa to KD-app of this FIXa
[3] = target: T2, plasma purified human AT-III (antithrombin III) in complex with unfractionated heparin (human, UniProt P01008); test: AT-III/UFH inhibition of FIXa, residual activity on Mesyl-D-CHG-Gly-Arg-AMC; K0.5 = AT-III conc. for 50% inhibition
T2 construct: also called AT-III/UFH

[4] = target: T3, plasma purified human antithrombin III (AT-III), in complex with unfractionated heparin (UFH) (human, UniProt P01008); test: K0.5: AT-III conc. (with UFH) for 50% inhibition of FIXa cleavage of Mesyl-D-CHG-Gly-Arg-AMC
T3 construct: also called AT-III/UFH

[5] = target: T4, antithrombin III (plasma purified human AT-III, Molecular Innovations) (human, UniProt P01008); test: AT-III/UFH inhibition of FIXa cleavage of Mesyl-D-CHG-Gly-Arg-AMC; K0.5 = AT-III conc. for 50% inhibition (AT-III varied)
T4 construct: also called AT-III/UFH

Binder | IC50 [4] | IC50 [5] | also measured
FIXa-D104N/K106S/I251S (enzyme) chain 1: YNSGKLEEFVQGNLERECMEEKCSFEEAREVFENTERTTEFWKQYVDGDQCESNPCLNGGSCKDDINSYECWCPFGFEGKNCELDVTCNIKNGRCEQFCKNSANNSVVCSCTEGYRLAENQKSCEPAVPFPCGRVSVSQTSKLTR chain 2: [no letters for about 250 residues with changes] [FIXa-D104N/K106S/I251S, listing 1 of 2 here] | – | – | Kd [1]: 306 nM; KD-WT/KD-mut [2]: 0.3
FIXa-D104N/K106S/I251S (enzyme) chain 1: YNSGKLEEFVQGNLERECMEEKCSFEEAREVFENTERTTEFWKQYVDGDQCESNPCLNGGSCKDDINSYECWCPFGFEGKNCELDVTCNIKNGRCEQFCKNSANNSVVCSCTEGYRLAENQKSCEPAVPFPCGRVSVSQTSKLTR chain 2: [no letters for about 250 residues with changes] [FIXa-D104N/K106S/I251S, listing 2 of 2 here] | – | – | IC50 [3]: 32 nM
FIXa-A103N/N105S/K228N (enzyme) chain 1: YNSGKLEEFVQGNLERECMEEKCSFEEAREVFENTERTTEFWKQYVDGDQCESNPCLNGGSCKDDINSYECWCPFGFEGKNCELDVTCNIKNGRCEQFCKNSNDSKVVCSCTEGYRLAENQKSCEPAVPFPCGRVSVSQTSKLTR chain 2: [no letters for about 250 residues with changes] | 46 nM | – | –
FIXa D85N/D203N/F205T (enzyme, also called D[85]N/D39N/F41T) light: YNSGKLEEFVQGNLERECMEEKCSFEEAREVFENTERTTEFWKQYVDGDQCESNPCLNGGSCKDDINSYECWCPFGFEGKNCELNVTCNIKNGRCEQFCKNSADNKVVCSCTEGYRLAENQKSCEPAVPFPCGRVSVSQTSKLTR heavy: [no letters for about 250 residues with changes] | – | 587 nM | –
FIXa-D85N/I251S (enzyme, also called D[85]N/I86S) chain 1: YNSGKLEEFVQGNLERECMEEKCSFEEAREVFENTERTTEFWKQYVDGDQCESNPCLNGGSCKDDINSYECWCPFGFEGKNCELNVTCNIKNGRCEQFCKNSADNKVVCSCTEGYRLAENQKSCEPAVPFPCGRVSVSQTSKLTR chain 2: [no letters for about 250 residues with changes] | 19 nM | – | –
FIXa-A103N/N105S/I251S (enzyme) chain 1: YNSGKLEEFVQGNLERECMEEKCSFEEAREVFENTERTTEFWKQYVDGDQCESNPCLNGGSCKDDINSYECWCPFGFEGKNCELDVTCNIKNGRCEQFCKNSNDSKVVCSCTEGYRLAENQKSCEPAVPFPCGRVSVSQTSKLTR chain 2: [no letters for about 250 residues with changes] | – | – | IC50 [3]: 42 nM
FIXa A103N/N105S/K228N (enzyme) light: YNSGKLEEFVQGNLERECMEEKCSFEEAREVFENTERTTEFWKQYVDGDQCESNPCLNGGSCKDDINSYECWCPFGFEGKNCELDVTCNIKNGRCEQFCKNSNDSKVVCSCTEGYRLAENQKSCEPAVPFPCGRVSVSQTSKLTR heavy: [no letters for about 250 residues with changes] | – | 46 nM | –
FIXa D85N/I251S (enzyme, also called D[85]N/I86S) light: YNSGKLEEFVQGNLERECMEEKCSFEEAREVFENTERTTEFWKQYVDGDQCESNPCLNGGSCKDDINSYECWCPFGFEGKNCELNVTCNIKNGRCEQFCKNSADNKVVCSCTEGYRLAENQKSCEPAVPFPCGRVSVSQTSKLTR heavy: [no letters for about 250 residues with changes] | – | 19 nM | –
FIXa D85N/K228N (enzyme, also called D[85]N/K63N) light: YNSGKLEEFVQGNLERECMEEKCSFEEAREVFENTERTTEFWKQYVDGDQCESNPCLNGGSCKDDINSYECWCPFGFEGKNCELNVTCNIKNGRCEQFCKNSADNKVVCSCTEGYRLAENQKSCEPAVPFPCGRVSVSQTSKLTR heavy: [no letters for about 250 residues with changes] | – | 34 nM | –
FIXa-D85N/K228N (enzyme, also called D[85]N/K63N) chain 1: YNSGKLEEFVQGNLERECMEEKCSFEEAREVFENTERTTEFWKQYVDGDQCESNPCLNGGSCKDDINSYECWCPFGFEGKNCELNVTCNIKNGRCEQFCKNSADNKVVCSCTEGYRLAENQKSCEPAVPFPCGRVSVSQTSKLTR chain 2: [no letters for about 250 residues with changes] | 34 nM | – | –
FIXa-D85N/D203N/F205T (enzyme, also called D[85]N/D39N/F41T) chain 1: YNSGKLEEFVQGNLERECMEEKCSFEEAREVFENTERTTEFWKQYVDGDQCESNPCLNGGSCKDDINSYECWCPFGFEGKNCELNVTCNIKNGRCEQFCKNSADNKVVCSCTEGYRLAENQKSCEPAVPFPCGRVSVSQTSKLTR chain 2: [no letters for about 250 residues with changes] | 587 nM | – | –
